110 sequences from article PMC4242493 can be followed below.

This is one part of the list. The list includes weakly bound sequences.

The target of this test is MaxL homodimer (UniProt P61244). Description: universal protein-binding microarray (PBM). To be noted: PBS-based mixture, 10 nM His-tagged protein dimer, 2% milk, 200 ng/uL BSA, 50 ng/uL salmon testes DNA, 0.02% TX-100; detection with Alexa 488 anti-His …; high values mean tight binding; most listed sequences are background and not binding sites; double strand, one strand shown.
UniProt P61244, sequence (P61244 whole entry): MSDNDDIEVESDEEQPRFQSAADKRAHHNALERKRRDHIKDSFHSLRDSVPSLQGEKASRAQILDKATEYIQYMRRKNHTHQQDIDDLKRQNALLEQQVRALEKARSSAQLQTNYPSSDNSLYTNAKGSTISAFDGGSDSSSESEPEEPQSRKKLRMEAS
Turning to AAAAATGC, the binding signal (normalized occupancy) is 0.0718. With GCGAAGTA the figure was 0.0661; with CCTAAGGA, 0.0757. Under ATCGCGCG stands 0.0715; under AGGGTATG, 0.0841; under TCTATTCA, 0.0828. CCGTATGA: the binding signal (normalized occupancy) came to 0.0792. In the case of AGTGGACG, the binding signal (normalized occupancy) worked out at 0.0683. With AAGGACGG, the binding signal (normalized occupancy) is 0.0706. As to CGAGCTGA, the binding signal (normalized occupancy) amounted to 0.0699. For ATTTGTCG, the binding signal (normalized occupancy) was 0.0732. For CGTCTATC, the binding signal (normalized occupancy) turned out to be 0.078. For TCCCAGCA, the binding signal (normalized occupancy) was 0.0721. Consider CGAGGGAC, for which the binding signal (normalized occupancy) amounted to 0.0711. Under CCATGACG stands 0.0756; under CAGGACTA, 0.0709. Take CATGACAG: the binding signal (normalized occupancy) turned out to be 0.0835. Under ACCGCGGG stands 0.0694; under AAGTAGTA, 0.0794. Under ATTGCGCA stands 0.075; under GTTAGGGA, 0.076; under CTAGGAGC, 0.0687. As for AACGCGAG, the binding signal (normalized occupancy) was determined as 0.0764. With CACCGCCG the figure was 0.0703.

On to ATAGGTAA, for which the binding signal (normalized occupancy) was 0.0773. With CAACAAGA the figure was 0.0766; with AAGGAACT, 0.0712; with AATGCACC, 0.0777.

Regarding CGAAATGC, the binding signal (normalized occupancy) stood at 0.0839. With AGATTCTG the figure was 0.0733. With ATTTTCCC the figure was 0.0783; with ATCCATTG, 0.0801; with ACCTTTCT, 0.0739. With AGTCAACG the figure was 0.0774; with GTACGCTA, 0.0796. Consider CCAAAACG, for which the binding signal (normalized occupancy) is 0.0713. For AGCGTGGG, the binding signal (normalized occupancy) is 0.113. Under CCTAAGAG stands 0.0723.

ATCTTTGG: the binding signal (normalized occupancy) is 0.0739. For the sequence ACATATCG, the binding signal (normalized occupancy) came out at 0.0783. With CCATTCAC the figure was 0.078; with CGGTTTGA, 0.0701.

For GCAGTTTA, the binding signal (normalized occupancy) was found to be 0.0714. In the case of AATCGGCG, the binding signal (normalized occupancy) was determined as 0.0688. Under GAGCCCTC stands 0.0682; under CACTGTGG, 0.0743.

Take ACCGCGAT: the binding signal (normalized occupancy) worked out at 0.0768. On to AGGGCTAG, for which the binding signal (normalized occupancy) turned out to be 0.0711.

Regarding CTATCTAA, the binding signal (normalized occupancy) is 0.0749. With ACGAGAGA the figure was 0.0774. With CAGGTACG the figure was 0.0729. With ATCTAGCA the figure was 0.0824; with CGTTGGAG, 0.0748; with CCGAAGCA, 0.0764. Take CGAAAACG: the binding signal (normalized occupancy) amounted to 0.0706. AACGTCAG: the binding signal (normalized occupancy) was determined as 0.0741.

Take CTAACACA: the binding signal (normalized occupancy) worked out at 0.0861. In the case of AGGCGCAG, the binding signal (normalized occupancy) came to 0.0694. Turning to CCGCAACG, the binding signal (normalized occupancy) was determined as 0.0686. Regarding ATAGGTAC, the binding signal (normalized occupancy) was determined as 0.0727.

As for CTGAGACA, the binding signal (normalized occupancy) is 0.0717.

As for CACAAACG, the binding signal (normalized occupancy) was determined as 0.071. For ACAGCGTC, the binding signal (normalized occupancy) stood at 0.0731. With AAGTAATG the figure was 0.0807; with ATCCCGCC, 0.0737; with AACAGTGC, 0.0741. With AGTCCCAC, the binding signal (normalized occupancy) amounted to 0.0735.

With AGGGGGGG, the binding signal (normalized occupancy) was 0.0816. Under CAACCCCC stands 0.0821. With GAACTGAC the figure was 0.0729; with ATATAACA, 0.0809; with CAATACTG, 0.0785.

As to AGCCAAAC, the binding signal (normalized occupancy) worked out at 0.0733. Under AAGACTAA stands 0.0733. For the sequence TATTCTGA, the binding signal (normalized occupancy) worked out at 0.0768.

ACTCTCGC: the binding signal (normalized occupancy) stood at 0.0742. Take GAGCCATC: the binding signal (normalized occupancy) was determined as 0.074.

On to CGTCGCAA, for which the binding signal (normalized occupancy) amounted to 0.0721. Take ATCCAATG: the binding signal (normalized occupancy) was 0.0815. Take CCGCTTGA: the binding signal (normalized occupancy) came out at 0.0686. For the sequence GGGCAAAA, the binding signal (normalized occupancy) is 0.0701. Take AAACCGCA: the binding signal (normalized occupancy) came out at 0.0705. Take CCGGTATC: the binding signal (normalized occupancy) came out at 0.0749. With ACGTCCGG the figure was 0.069; with AAATATTC, 0.078; with ATCTCGCC, 0.0718. Take AGGTCTTA: the binding signal (normalized occupancy) turned out to be 0.0761. For the sequence TAATATAA, the binding signal (normalized occupancy) amounted to 0.0786. Under AAATAGGG stands 0.0797.

Take GGAAGTAC: the binding signal (normalized occupancy) was 0.0676. With AAATACGT the figure was 0.0822; with ACTATTCA, 0.0755. With AGCCAAAT the figure was 0.0727; with CTCGGTGA, 0.07.

On to GCGGCGTA, for which the binding signal (normalized occupancy) was found to be 0.0764. Under TATCATGA stands 0.0886; under AAGTAATC, 0.0762; under GATATGCA, 0.0792. Regarding GCTCTTAC, the binding signal (normalized occupancy) stood at 0.0729.

Regarding CTGGCGCA, the binding signal (normalized occupancy) amounted to 0.0709. For CGGGGTGA, the binding signal (normalized occupancy) amounted to 0.0807. Under AGCGTCAA stands 0.0731; under CGCAGCTC, 0.0702. With CTAGCTGA the figure was 0.0713. In the case of TACCGGAA, the binding signal (normalized occupancy) came to 0.071. With TGGATCAA the figure was 0.0767; with GAGACACA, 0.0755; with AGTCGTGC, 0.0781.

On to CCCTTGAC, for which the binding signal (normalized occupancy) was determined as 0.0761. For TTATGGAA, the binding signal (normalized occupancy) is 0.0819.
